{"source": "PubChem BioAssay AID588795", "about": "(National Center for Advancing Translational Sciences (NCATS), 2011)", "note": "Hit rate of the full screen: of about 390,000 compounds, about 1,400 (0.36%) were called active. This list was built around the results that the source calls inconclusive (neither active nor inactive); the mix of calls is not that of the screen. The call rests on the fitted dose curve; in most records, active means well fitted inhibition curve with a large enough effect; inconclusive means small, poorly fitted or top-dose-only effect; inactive means no such curve, though single readings can be large or run the other way. Potencies of inconclusive entries are doubtful fits and often do not repeat. On the % scale 0 is the no-effect control and ±100 the full control effect; potency means the concentration at half of the fitted maximal effect; tags describe the fitted curve by direction and shape.", "data": [{"molecular_target": "Flap endonuclease 1 (Homo sapiens) (UniProt P39748)", "sequence (P39748 whole entry, looked up)": "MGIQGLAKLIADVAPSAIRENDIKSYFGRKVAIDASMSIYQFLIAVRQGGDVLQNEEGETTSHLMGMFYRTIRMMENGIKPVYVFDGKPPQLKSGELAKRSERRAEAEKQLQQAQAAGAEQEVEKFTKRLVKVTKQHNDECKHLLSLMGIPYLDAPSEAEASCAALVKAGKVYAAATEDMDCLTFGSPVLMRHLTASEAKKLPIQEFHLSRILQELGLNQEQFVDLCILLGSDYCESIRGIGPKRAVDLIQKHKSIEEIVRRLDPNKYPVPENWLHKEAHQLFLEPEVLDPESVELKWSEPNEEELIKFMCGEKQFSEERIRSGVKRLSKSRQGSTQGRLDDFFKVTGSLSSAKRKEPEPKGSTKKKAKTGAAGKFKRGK", "assay": "qHTS Assay for the Inhibitors of Human Flap endonuclease 1 (FEN1); further: nearly all actives have a fitted effect of over 65% in size.", "details": "Recombinant FEN1 flap cleavage, fluorescence, 15 min; series mostly up to 114 µM; activity change, negative = inhibition: at the top concentration", "summary_of_the_method": "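Compounds are tested as a concentration series against 10 nM FEN1; after a 15 min room-temperature preincubation, 50 nM substrate starts cleavage, with plate reads at 0 and 15 min. Normalized responses are fitted by a Hill equation.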", "values": [{"compound": "CCc1nn(CC(=O)NCc2ccccc2Cl)c(=O)c2cccn12", "Potency": "inconclusive: 79.4 µM [inhibitor, partial curve]"}, {"compound": "O=C(O)CSc1cc(NS(=O)(=O)c2ccc(Cl)cc2)c2ccccc2c1O", "Potency": "active: 35.5 µM"}, {"compound": "CC[n+]1c(/C=C/c2ccc(OC(C)=O)c(OC)c2)ccc2ccccc21", "Potency": "inconclusive: 22.4 µM [inhibitor, single point]"}, {"compound": "COc1ccc2nc(/C(C#N)=C\\c3ccc(Oc4ccc([N+](=O)[O-])cn4)cc3)[nH]c2c1", "activity change, negative = inhibition": "inactive: 5.77%"}, {"compound": "CC1Cc2ccccc2N1Cc1cc(=O)c(OCC(=O)Nc2ccccc2)co1", "note": "(configuration not stated)", "Potency": "inconclusive: 89.1 µM [inhibitor, single point]"}, {"compound": "O=C(O)C1Nc2c(Cl)cc(Cl)c(Cl)c2C2C=CCC12", "note": "(configuration not stated)", "Potency": "active: 35.5 µM"}, {"compound": "COC(=O)c1ccc(CN2CCC(CO)(Cc3ccccc3Cl)CC2)cc1", "Potency": "inconclusive: 89.1 µM [inhibitor, partial curve, poor fit]"}, {"compound": "CC(C)Cn1c(-c2cc([N+](=O)[O-])ccc2Cl)nc2c1c(=O)[nH]c(=O)n2Cc1ccccc1", "Potency": "inconclusive: 89.1 µM [inhibitor, partial curve, poor fit]"}, {"compound": "COc1cc(/C=N/NC(=O)c2cc(-c3ccccc3)sc2N)cc(OC)c1OC", "Potency": "inconclusive: 11.2 µM [inhibitor, partial curve, poor fit]"}, {"compound": "COC(=O)/C=C/COc1ccccc1[N+](=O)[O-]", "Potency": "inconclusive: 89.1 µM [inhibitor, single point]"}, {"compound": "CCN(CC)c1ccc(/C=C/C(=O)c2ccc(Br)cc2)cc1", "Potency": "inconclusive: 89.1 µM [inhibitor, single point]"}, {"compound": "CCN(CC)CCSc1nnc2c3cc(F)ccc3n(C)c2n1", "Potency": "inconclusive: 89.1 µM [inhibitor, partial curve, poor fit]"}, {"compound": "N#C/C(=C\\c1ccc(Sc2ccccc2)o1)c1nc2ccccc2[nH]1", "Potency": "inconclusive: 89.1 µM [inhibitor, partial curve, poor fit]"}, {"compound": "Cc1ccc(C)c2c(/C=C/c3ccc(N(C)C)cc3)ccnc12", "activity change, negative = inhibition": "inactive: -5.18%"}, {"compound": "Cc1ccc(-c2nc3cccnc3o2)cc1NC(=O)COc1ccc(C(C)(C)C)cc1", "Potency": "inconclusive: 56.2 µM [inhibitor, single point]"}, {"compound": "COc1ccc(C(=O)N2CCN(c3cccc(Cl)c3)CC2)cc1", "activity change, negative = inhibition": "inactive: 3.62%"}, {"compound": "Cc1cccc2c1Sc1ccc(Cl)cc1CC2N1CCNCC1", "note": "(configuration not stated)", "Potency": "inconclusive: 89.1 µM [inhibitor, single point]"}, {"compound": "COc1cc(/C=C/c2[nH]c(=O)[nH]c(=O)c2[N+](=O)[O-])cc([N+](=O)[O-])c1O", "Potency": "inconclusive: 35.5 µM [inhibitor, partial curve]"}, {"compound": "Cc1ccccc1CCNC(=O)c1ccc(Cl)c(S(=O)(=O)N2CC(C)OC(C)C2)c1", "note": "(configuration not stated)", "Potency": "inconclusive: 89.1 µM [inhibitor, partial curve, poor fit]"}, {"compound": "CCc1ccc(-n2cccc2/C=C2/C(=N)N3C(=NC2=O)SN=C3S(C)(=O)=O)cc1", "Potency": "inconclusive: 89.1 µM [inhibitor, single point]"}, {"compound": "CCC(=O)OC1(C)C(=O)C=C2C=C(C3CC3)OC=C2C1=O", "note": "(configuration not stated)", "Potency": "inconclusive: 44.7 µM [inhibitor, partial curve]"}, {"compound": "COc1cc(/C=C2\\C(=N)N3N=C(S(C)(=O)=O)SC3=NC2=O)cc(OC)c1OCCOc1ccc(C)cc1", "activity change, negative = inhibition": "inactive: -0.707%"}, {"compound": "COc1ccc(OC)c(/C=C/c2cc3ccccc3c[n+]2C)c1", "Potency": "inconclusive: 50.1 µM [inhibitor, partial curve]"}, {"compound": "COC(=O)c1sc(-c2ccc(Cl)cc2)cc1NC(=O)c1ccccc1C(=O)O", "Potency": "inconclusive: 70.8 µM [inhibitor, partial curve, poor fit]"}, {"compound": "NCCNC(=O)c1ncsc1-c1cccc(F)c1", "Potency": "inconclusive: 37.7 µM [inhibitor, single point]"}, {"compound": "COc1ccc(N2CCN(C(=O)c3cccc(NC(=O)c4nsc5ccccc45)c3)CC2)cc1", "activity change, negative = inhibition": "inactive: 1.14%"}, {"compound": "CCOC(=O)c1ccc(NC(=O)Nc2cc3c(cc2N2CCCC2)n(C)c(=O)n3C)cc1", "Potency": "inconclusive: 79.4 µM [inhibitor, partial curve, poor fit]"}, {"compound": "Cc1cc(C)c2c(n1)sc1c(O)cc(=O)[nH]c12", "Potency": "inconclusive: 44.7 µM [inhibitor, partial curve, poor fit]"}, {"compound": "O=C(Nc1ccc2nc(SCC(=O)N3CCCc4ccccc43)sc2c1)c1ccccc1", "Potency": "inconclusive: 56.2 µM [inhibitor, partial curve, poor fit]"}, {"compound": "Cc1cccn2c(=O)c3cc(C(N)=S)c(=N)n(CCCOC(C)C)c3nc12", "Potency": "inconclusive: 50.1 µM [inhibitor, partial curve, poor fit]"}, {"compound": "Nc1ccc2c(c1)C=C/C2=C\\c1ccccc1", "Potency": "inconclusive: 44.7 µM [inhibitor, partial curve, poor fit]"}, {"compound": "Cc1cccc(NC(=O)C(NS(=O)(=O)c2ccc3c(c2)oc(=O)n3C)C(C)C)c1", "note": "(configuration not stated)", "activity change, negative = inhibition": "inactive: -5.53%"}, {"compound": "CC(C)NC(=S)NC(=O)c1ccc(-c2ccccc2)cc1", "Potency": "inconclusive: 89.1 µM [inhibitor, partial curve, poor fit]"}, {"compound": "CC1Sc2ccc(S(=O)(=O)N3CCC(C(=O)Nc4ccc(Cl)cc4)CC3)cc2NC1=O", "note": "(configuration not stated)", "Potency": "inconclusive: 89.1 µM [inhibitor, partial curve, poor fit]"}, {"compound": "Cc1nc(C)c(-c2csc(Nc3ccc(C(=O)O)c(O)c3)n2)s1", "Potency": "inconclusive: 39.8 µM [inhibitor, single point]"}, {"compound": "C#CCOCCOCCOCCNc1nc(N2CCN(C(=O)CCCCCCCCCCNC(=O)[C@H](CCCCN)n3cc(CCO)nn3)CC2)nc(N2CCN(C(=O)CCCCCCCCCCNC(=O)[C@@H]([C@H](C)O)n3cc(C)nn3)CC2)n1", "Potency": "inconclusive: 89.1 µM [inhibitor, partial curve, poor fit]"}, {"compound": "CCc1ccccc1NC(=O)C1CCCN(c2ncnc3onc(C)c23)C1", "note": "(configuration not stated)", "activity change, negative = inhibition": "inactive: 18.1%"}, {"compound": "COc1ccc(C2=Nn3c(nnc3-c3ccccc3F)SC2)cc1OC1CCCC1", "Potency": "inconclusive: 44.7 µM [inhibitor, partial curve, poor fit]"}, {"compound": "Cc1nn(C(C)C(=O)NCCCN2CCCCCC2)c(=O)c2c1sc1ccccc12", "note": "(configuration not stated)", "Potency": "inconclusive: 89.1 µM [inhibitor, single point]"}, {"compound": "CCOc1ncccc1C(=O)NNC(=O)c1cccc(S(=O)(=O)Nc2ccc(OC)cc2)c1", "activity change, negative = inhibition": "inactive: 12.1%"}, {"compound": "COc1ccnc(N2CCN(c3ccc(Cl)cc3)CC2)c1C#N", "Potency": "inconclusive: 79.4 µM [inhibitor, partial curve, poor fit]"}, {"compound": "COc1cc(/C=C(\\C#N)C(=O)Nc2cccc(C(=O)O)c2)ccc1OCc1ccc(F)cc1", "Potency": "inconclusive: 39.8 µM [inhibitor, partial curve, poor fit]"}, {"compound": "CC(C(Sc1ccccc1N)c1ccccc1)[N+](=O)[O-]", "note": "(configuration not stated)", "Potency": "inconclusive: 35.5 µM [inhibitor, partial curve]"}, {"compound": "CN(CCCC1CCCC1)C(=O)c1cc(COc2c(F)cccc2F)on1", "Potency": "inconclusive: 89.1 µM [inhibitor, partial curve, poor fit]"}, {"compound": "COc1cc(O)c2c(=O)c3c(O)ccc(O)c3oc2c1", "Potency": "inconclusive: 25.1 µM [inhibitor, full curve]"}, {"compound": "CCOC(=O)c1nnsc1NC(C)=O", "activity change, negative = inhibition": "inactive: 7.49%"}, {"compound": "ON=C1/C(=N\\O)CC2(C/C1=N/O)OCCO2", "Potency": "inconclusive: 70.8 µM [inhibitor, partial curve]"}, {"compound": "COc1cccc(C(=O)N(Cc2nc(-c3ccc(C)cc3)no2)C(C)C)c1", "Potency": "inconclusive: 89.1 µM [inhibitor, partial curve, poor fit]"}, {"compound": "O=C(O)c1ccc(N=Nc2c(O)ccc3ncccc23)cc1", "Potency": "inconclusive: 8.91 µM [inhibitor, full curve, poor fit]"}, {"compound": "O=C(Cc1ccc(F)cc1)Nc1ccccc1Sc1ccccc1", "Potency": "inconclusive: 17.8 µM [inhibitor, partial curve, poor fit]"}, {"compound": "COc1cnc(SCc2ccc(Cl)cc2Cl)nc1Cl", "Potency": "inconclusive: 89.1 µM [inhibitor, partial curve, poor fit]"}, {"compound": "CCOc1cc(/C=N/NC(=O)c2cccs2)ccc1OC(=O)N1CCOCC1", "activity change, negative = inhibition": "inactive: 4.63%"}, {"compound": "O=[N+]([O-])c1ccc(C=Nc2ccc(Cl)cc2Cl)s1", "Potency": "inconclusive: 25.1 µM [inhibitor, partial curve, poor fit]"}, {"compound": "CS(=O)(=O)c1ccc(CNC(=O)[C@]2(C(F)(F)F)C[C@H](CCc3ccccc3)CCCO2)cc1", "Potency": "inconclusive: 79.4 µM [inhibitor, partial curve, poor fit]"}, {"compound": "CC(=O)n1cc([C@@H]2C=C(C(=O)NCc3ccccc3)O[C@H](OCc3ccc(CO)cc3)C2)c2ccccc21", "activity change, negative = inhibition": "inactive: -23.4%"}, {"compound": "COc1cc(C(=O)NC2CCN(C)CC2)ccc1Nc1ncc2c(n1)N(Cc1ccccc1)CCC(=O)N2C", "Potency": "inconclusive: 70.8 µM [inhibitor, partial curve]"}, {"compound": "C=C1CCN(C(CC(C)C)C(=O)NCc2ccc(Cl)c(Cl)c2)S(=O)(=O)c2ccccc21", "note": "(configuration not stated)", "activity change, negative = inhibition": "inactive: -12.9%"}, {"compound": "CCCCNc1c(-c2ccc(-c3cccc(Cl)c3)cc2)nc2ccccn12", "Potency": "inconclusive: 56.2 µM [inhibitor, partial curve, poor fit]"}, {"compound": "O=C(O)c1ccc2nc(-c3ccco3)c(-c3ccco3)nc2c1", "Potency": "active: 35.5 µM"}, {"compound": "CN1CCN(CCOCCOc2c(Cl)cc(Cl)cc2Cl)CC1", "Potency": "inconclusive: 79.4 µM [inhibitor, single point]"}, {"compound": "COc1ccc(-c2nnn(CC(=O)N(CC3CCCO3)C(C(=O)NC(C)(C)C)c3ccco3)n2)cc1OC", "note": "(configuration not stated)", "activity change, negative = inhibition": "inactive: 2.54%"}, {"compound": "O=C(NCCc1ccccn1)C(F)(F)C(F)(F)C(F)(F)C(F)(F)C(F)(F)C(F)(F)C(F)(F)C(F)F", "Potency": "inconclusive: 50.1 µM [inhibitor, partial curve, poor fit]"}]}]}
